From the supplement of paper PMC12217912
The other results are listed elsewhere or left out. The full chains were built here from the parent and the listed change. Values near 0.05 are background.

B1: TEV protease; numbered along this chain (parent)
chain: MGESLFKGPRDYNPISSSICHLTNESDGHTTSLYGIGFGPFIITNKHLFRRNNGTLVVQSLHGVFKVKDTTTLQQHLVDGRDMIIIRMPKDFPPFPQKLKFREPQREERICLVTTNFQTKSMSSMVSDTSCTFPSGDGIFWKHWIQTKDGQCGSPLVSTRDGFIVGIHSASNFTNTNNYFTSVPKNFMELLTNQEAQQWVSGWRLNADSVLWGGHKVFMVKPEEPFQPVKEATQL

Variants of: B1
Assay: raw area under fraction-flipped curve 0-4 h after induction (AUC4h, not background-subtracted), DNA-recorder readout of cleavage of the substrate (dimensionless); higher = more cleavage of the substrate by the protease variant
Conditions: temperature: 34 °C; time window: 0-4 h after rhamnose induction
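Further: Bxb1 expression induced with 0.2% (w/v) L-rhamnose at OD600 near 0.5, cultures sampled hourly, flipped fraction per protease–substrate barcode pair counted by paired-end Illumina sequencing.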

Variant | area with substrate ENLYDQS | area with substrate ENLYEQS | area with substrate ENLYHQS | area with substrate ENLYKQS | area with substrate ENLYLQS | area with substrate ENLYMQS | area with substrate ENLYNQS | area with substrate ENLYRQS | area with substrate ENLYTQS | area with substrate ENLYWQS | area with substrate ENLYGQS | area with substrate ENLYIQS | area with substrate ENLYPQS | area with substrate ENLYQQS | area with substrate ENLYSQS | area with substrate ENLYYQS | area with substrate ENLYVQS
MGESLFKGPRDYNPISSSICHLTNESDGHTTSLYGIGFGPNIITNKHLFRRNNGTLVVQSLHGVFKVKDTTTLQQHLVDGRDMIIIRMPKDFPPFPQKLKFREPQREERICLVTTNFQTKSMSSMVSDTSCTFPSGDGIFWKHWIQTKDGQCGSPLVSTRDGFIVGIHSASNFTNTNNYFTSVPKNFMELLTNQEAQQWVSGWRLNADSVLWGGHKVFMVKPEEPFQPVKEATQL [F41N] | 0.0491 | 0.096 | 0.0567 | 0.0752 | 0.0336 | 0.0749 | 0.0786 | 0.0474 | 0.0676 | 0.0617 |  |  |  |  |  |  | 
MGESLFKGPRDYNPISSSICHLTNESDGHTTSLYGIGFGPFWITNKHLFRRNNGTLVVQSLHGVFKVKDTTTLQQHLVDGRDMIIIRMPKDFPPFPQKLKFREPQREERICLVTTNFQTKSMSSMVSDTSCTFPSGDGIFWKHWIQTKDGQCGSPLVSTRDGFIVGIHSASNFTNTNNYFTSVPKNFMELLTNQEAQQWVSGWRLNADSVLWGGHKVFMVKPEEPFQPVKEATQL [I42W] | 0.0495 | 0.0479 | 0.0548 | 0.0321 |  | 0.0687 | 0.0582 | 0.0497 | 0.06 | 0.0603 | 0.0817 | 0.0858 | 0.0684 | 0.04 | 0.0553 | 0.0711 | 
MGESLFKGPRDYNPISSSICHLTNESDGHTTSLYGIGFGPFIITNKHLFLRNNGTLVVQSLHGVFKVKDTTTLQQHLVDGRDMIIIRMPKDFPPFPQKLKFREPQREERICLVTTNFQTKSMSSMVSDTSCTFPSGDGIFWKHWIQTKDGQCGSPLVSTRDGFIVGIHSASNFTNTNNYFTSVPKNFMELLTNQEAQQWVSGWRLNADSVLWGGHKVFMVKPEEPFQPVKEATQL [R50L] | 0.0661 |  | 0.0647 | 0.0722 |  | 0.0673 | 0.0619 | 0.0467 | 0.0968 | 0.102 | 0.0698 | 0.147 | 0.065 | 0.0599 | 0.0857 | 0.0792 | 0.0753
MGESLFKGPRDYNPISSSICHLTNESDGHTTSLYGIGFGPFIITNKHLFRMNNGTLVVQSLHGVFKVKDTTTLQQHLVDGRDMIIIRMPKDFPPFPQKLKFREPQREERICLVTTNFQTKSMSSMVSDTSCTFPSGDGIFWKHWIQTKDGQCGSPLVSTRDGFIVGIHSASNFTNTNNYFTSVPKNFMELLTNQEAQQWVSGWRLNADSVLWGGHKVFMVKPEEPFQPVKEATQL [R51M] | 0.0587 | 0.0574 | 0.0717 | 0.0556 |  |  |  |  | 0.0859 |  |  |  | 0.0758 | 0.0885 | 0.0728 |  | 0.114
MGESLFKGPRDYNPISSSICHLTNESDGHTTSLYGIGFGPFIITNKHLFRRNAGTLVVQSLHGVFKVKDTTTLQQHLVDGRDMIIIRMPKDFPPFPQKLKFREPQREERICLVTTNFQTKSMSSMVSDTSCTFPSGDGIFWKHWIQTKDGQCGSPLVSTRDGFIVGIHSASNFTNTNNYFTSVPKNFMELLTNQEAQQWVSGWRLNADSVLWGGHKVFMVKPEEPFQPVKEATQL [N53A] | 0.0539 | 0.0772 | 0.0617 | 0.0671 |  |  | 0.0632 | 0.068 | 0.0684 | 0.0787 | 0.0542 | 0.107 | 0.06 | 0.0512 | 0.0507 | 0.0615 | 
MGESLFKGPRDYNPISSSICHLTNESDGHTTSLYGIGFGPFIITNKHLFRRNNGTLYVQSLHGVFKVKDTTTLQQHLVDGRDMIIIRMPKDFPPFPQKLKFREPQREERICLVTTNFQTKSMSSMVSDTSCTFPSGDGIFWKHWIQTKDGQCGSPLVSTRDGFIVGIHSASNFTNTNNYFTSVPKNFMELLTNQEAQQWVSGWRLNADSVLWGGHKVFMVKPEEPFQPVKEATQL [V57Y] | 0.0552 | 0.0578 | 0.0628 | 0.066 | 0.0928 | 0.0352 | 0.0631 | 0.0628 |  |  | 0.08 |  | 0.0667 | 0.0733 | 0.0785 | 0.0642 | 0.145
MGESLFKGPRDYNPISSSICHLTNESDGHTTSLYGIGFGPFIITNKHLFRRNNGTLVVQSAHGVFKVKDTTTLQQHLVDGRDMIIIRMPKDFPPFPQKLKFREPQREERICLVTTNFQTKSMSSMVSDTSCTFPSGDGIFWKHWIQTKDGQCGSPLVSTRDGFIVGIHSASNFTNTNNYFTSVPKNFMELLTNQEAQQWVSGWRLNADSVLWGGHKVFMVKPEEPFQPVKEATQL [L61A] | 0.0729 |  | 0.0797 | 0.0383 |  |  | 0.0732 | 0.0604 |  | 0.0748 | 0.0611 | 0.133 | 0.0729 |  | 0.0598 |  | 0.109
MGESLFKGPRDYNPISSSICHLTNESDGHTTSLYGIGFGPFIITNKHLFRRNNGTLVVQSLHGNFKVKDTTTLQQHLVDGRDMIIIRMPKDFPPFPQKLKFREPQREERICLVTTNFQTKSMSSMVSDTSCTFPSGDGIFWKHWIQTKDGQCGSPLVSTRDGFIVGIHSASNFTNTNNYFTSVPKNFMELLTNQEAQQWVSGWRLNADSVLWGGHKVFMVKPEEPFQPVKEATQL [V64N] | 0.0659 | 0.0662 | 0.0684 | 0.0445 | 0.0864 | 0.0826 | 0.135 | 0.0569 | 0.0825 | 0.0824 | 0.0652 | 0.134 | 0.0635 | 0.0602 | 0.0751 | 0.0718 | 0.131
MGESLFKGPRDYNPISSSICHLTNESDGHTTSLYGIGFGPFIITNKHLFRRNNGTLVVQSLHGVEKVKDTTTLQQHLVDGRDMIIIRMPKDFPPFPQKLKFREPQREERICLVTTNFQTKSMSSMVSDTSCTFPSGDGIFWKHWIQTKDGQCGSPLVSTRDGFIVGIHSASNFTNTNNYFTSVPKNFMELLTNQEAQQWVSGWRLNADSVLWGGHKVFMVKPEEPFQPVKEATQL [F65E] | 0.0508 | 0.0582 | 0.0612 | 0.0612 |  | 0.0873 | 0.0601 | 0.0682 | 0.0722 | 0.0784 | 0.0704 | 0.0612 | 0.0487 | 0.0718 |  | 0.0586 | 
